Measured values published in the supplement of paper PMC10600219.
Several values for one entry are separate records, joined by “and”; a condition that tells them apart may be missing. Equal entries are not always repeated. Structures can show the parent of a compound that is named as a salt. Whole data set: some 2,800 compounds, median “cell viability relative to vehicle” near 0.98, cut for the lowest 2% near 0.45. The list shows a part of the results.

Each compound was assayed on NCI-H2228 alectinib-DTP (assay: cell viability relative to vehicle (fraction of vehicle); NCI-H2228 is an ALK-positive lung cancer line and DTP means drug-tolerant persister; higher = less growth inhibition). Settings: 100 nM; treatment time 6 days.
In short: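 Values give cell viability as a fraction of vehicle-treated cells. Parental and drug-tolerant persister NCI-H2228 cells (persisters made with 1000 nM of a targeted drug for 13 days) were exposed in 384-well plates to the 3114-agent TargetMol anti-cancer compound library at 100 nM, with DMSO as vehicle. ATP was then read after 6 days by the CellTiter-Glo 3D Cell Viability Assay.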

Structure (SMILES)	cell viability
O=C(O)C1=C(CSc2nnnn2CS(=O)(=O)O)CS[C@@H]2[C@H](NC(=O)[C@H](O)c3ccccc3)C(=O)N12 [Cefonicid sodium]	1.07
O=C(O)c1ccc(-c2ccc(C=C3SC(=S)N(Cc4ccccc4)C3=O)o2)cc1 [Leukadherin-1]	0.909
CCN(CC)CCNC(=O)c1ccc(N)cc1 [Procainamide hydrochloride]	1.16
NC[C@H](O)c1ccc(O)c(O)c1 [Noradrenaline bitartrate]	0.863
NC[C@H](O)c1ccc(O)c(O)c1 [Noradrenaline bitartrate monohydrate]	1.06
CCc1cnc(N2CCC(c3nc(COc4ccc(-n5cnnn5)cc4)cs3)CC2)nc1	0.83
O=C1O[C@H]([C@@H](O)CO)C([O-])=C1O.[Na+] [Sodium ascorbate]	0.928
O=[N+]([O-])c1ccc(Nc2nc(N3CCOCC3)nc(N3CCOCC3)n2)cc1	1.19
CCOC(=O)C1=C(N)Oc2ccc(Br)cc2C1C(C#N)C(=O)OCC (stereo unspecified)	1.06
Cc1cc(C(C)Nc2ccccc2)c2nc(N3CCOCC3)cc(=O)n2c1 (stereo unspecified)	0.852
N[C@H]1CC[C@H](N[C@@H]2C[C@H]2c2ccccc2)CC1	0.998
COc1c(Nc2ncc(Cl)c(N[C@H]3[C@@H](C(N)=O)[C@@H]4C=C[C@H]3C4)n2)ccc2c1CC[C@@H](N1CCOCC1)CC2	0.958
CC(=O)Nc1nnc(S(N)(=O)=O)s1 [Acetazolamide]	0.916
Nc1nc(OCc2cc(Br)cs2)c2[nH]cnc2n1 [Lomeguatrib]	0.921
Cc1cc(Nc2cc(N3CCN(C)CC3)nc(Sc3ccc(NC(=O)C4CC4)cc3)n2)n[nH]1 [Tozasertib]	0.762
Clc1ccc2nsnc2c1NC1=NCCN1 [Tizanidine hydrochloride]	1.02
CC1(C)CN(C(=O)c2ccc(-c3cccc4nc(NC(=O)C5CC5)nn34)cc2)C1 [Solcitinib]	1.04
O=C(O)CC(C(=O)O)n1c(O)c(C2=c3cc(Br)ccc3=NC2=O)sc1=S (stereo unspecified)	1.04
COc1ccc(-c2cc(=O)c3c(O)c(OC)c(O)cc3o2)cc1OC [Eupatilin]	1.1
CO/N=C(\C(=O)N[C@@H]1C(=O)N2C(C(=O)O)=C(COC(C)=O)CS[C@H]12)c1csc(N)n1 [Cefotaxime sodium]	0.897
COc1cc(CNC(=O)CCCC/C=C/C(C)C)ccc1O [Capsaicin]	1.12
C[C@]12CC[C@@H]3c4ccc(O)cc4C[C@@H](CCCCCCCCC[S+]([O-])CCCC(F)(F)C(F)(F)F)[C@H]3[C@@H]1CC[C@@H]2O (stereo partly specified) [Fulvestrant]	1.18
C[C@H]1CC[C@@]2(OC1)O[C@H]1C[C@H]3[C@@H]4CC[C@@H]5C[C@@H](O)CC[C@]5(C)[C@H]4CC[C@]3(C)[C@H]1[C@@H]2C [Sarsasapogenin]	0.968
CCS(=O)(=O)c1cccc(-c2cc(C(=O)NC3CCN(C)CC3)c(C)c3[nH]c4ncc(C)cc4c23)c1	0.755
O=C(/C=C/c1ccc(O)c(O)c1)O[C@H](Cc1ccc(O)c(O)c1)C(=O)O [Rosmarinic acid]	1
NC(=O)C1CCCc2c1[nH]c1ccc(Cl)cc21 (stereo unspecified) [Selisistat]	1

Structure (SMILES)	cell viability
CCC1(c2ccccc2)C(=O)NCNC1=O [Primidone]	1.08
COc1ccc(C(c2c[nH]c3ccccc23)c2c[nH]c3ccccc23)cc1	1.04
CCCCc1oc2ccc(NS(C)(=O)=O)cc2c1C(=O)c1ccc(OCCCN(CCCC)CCCC)cc1 [Dronedarone hydrochloride]	1.13
COc1cc(Nc2c(C#N)cnc3cc(OCCCN4CCN(C)CC4)c(OC)cc23)c(Cl)cc1Cl [Bosutinib]	1.19
CC(=O)OC[C@H]1O[C@@H]([S-])[C@H](OC(C)=O)[C@@H](OC(C)=O)[C@@H]1OC(C)=O.CCP(CC)CC.[Au+] [Auranofin]	0.931
CC(C)=CC(=O)CCC(=O)N1CCN(Cc2cc3nc(-c4cccc5[nH]ncc45)nc(N4CCOCC4)c3s2)CC1	0.892
CC(C)Oc1ccc(-c2nn([C@@H](C)c3oc4ccc(F)cc4c(=O)c3-c3cccc(F)c3)c3ncnc(N)c23)cc1F	0.937
CCCCCCCCCC(=O)CC(O)S(=O)(=O)O (stereo unspecified) [Sodium houttuyfonate]	1.08
COc1cc2ncnc(Nc3cccc(Cl)c3F)c2cc1OC(=O)N1CCN(C)C[C@H]1C [AZD3759 hydrochloride]	0.911
COc1cc2ncnc(Nc3cccc(Cl)c3F)c2cc1OC(=O)N1CCN(C)C[C@H]1C	0.928
c1ccc(-c2ccc(C(c3ccccc3)n3ccnc3)cc2)cc1 (stereo unspecified) [Bifonazole]	0.998
COc1cc2c(cc1O)CC[n+]1cc3c(OC)c(OC)ccc3cc1-2 [Jatrorrhizine]	0.914
CN(C)CCC(c1ccc(Br)cc1)c1ccccn1 (stereo unspecified) [Brompheniramine hydrogen maleate]	1.04
COc1cc2ncnc(Nc3cccc(Br)c3)c2cc1OC	0.798 and 0.939
O=C(Nc1cccnc1)c1cc(-c2ccnc(F)c2)ccc1OCc1ccccc1	0.981
CCCNC(=O)c1cn2ncnc(Nc3cc(C(=O)NC4CC4)ccc3C)c2c1C	1.03
O=C(Oc1cccc(F)c1OC(=O)c1cccc(O)c1)c1cccc(O)c1	1.02
CCOC(=O)N1CCC(CN(Cc2ccc(Cl)cc2)Cc2ccc([N+](=O)[O-])s2)C1 (stereo unspecified)	0.855
CCOc1nc2cccc(C(=O)O)c2n1Cc1ccc(-c2ccccc2-c2nnn[nH]2)cc1 [Candesartan]	0.958
CC[C@H](C)[C@H](N)C(=O)O [isoleucine]	1.15
CC1OC2(CS1)CN1CCC2CC1 (stereo unspecified) [Cevimeline hydrochloride hemihydrate]	0.797
CC(=O)OCC1=CO[C@@H](OC(=O)CC(C)C)[C@H]2C1=C[C@H](OC(=O)CC(C)(C)OC(C)=O)[C@]21CO1 [Acevaltrate]	1.13
Nc1ncnc2c1ncn2[C@@H]1O[C@H](CO)[C@@H](O)[C@@H]1O [Vidarabine]	0.787
COc1cn(-c2ccc(-n3cccn3)cc2F)nc(-c2ccnn2-c2ccccc2)c1=O	0.994
CCCc1cc(C)[nH]c(=O)c1CNC(=O)c1cc(-c2ccnc(N3CCN(C)CC3)c2)cc2c1cnn2C(C)C	1.05
